Laboratory results taken from US11618753B2 (priority 2018, dated 2023).

system: MLKL phosphorylation, HT29-L23 human colorectal adenocarcinoma cells; assay: cells; settings: read-out: pMLKL HCS Cell Assay (IC50, uM)

**Q.** With COc1ncc(-c2cc(CN3CCC(F)(F)CC3)c3c(N)ncnn23)cc1C(=O)N[C@@H]1CN(C(=O)OC(C(F)(F)F)C(F)(F)F)C[C@@H]1F [Example 1526, 1,1,1,3,3,3-hexafluoropropan-2-yl (3R,4S)-3-(5-{4-amino-5-[(4,4-difluoropiperidin-1-yl)methyl]pyrrolo[2,1-f][1,2,4]triazin-7-yl}-2-methoxypyridine-3-amido)-4-fluoropyrrolidine-1-carboxylate] as the compound, how does the IC50 read?
**A.** Its IC50 is 0.0068 µM.

**Q.** Which IC50 does the source give for COc1ncc(-c2cc(C)c3c(N)ncnn23)cc1C(=O)NCC[C@H](O)c1ccc(Cl)cc1 [Example 38, 5-{4-amino-5-methylpyrrolo[2,1-f][1,2,4]triazin-7-yl}-N-[(3S)-3-(4-chlorophenyl)-3-hydroxypropyl]-2-methoxypyridine-3-carboxamide] here?
**A.** Its IC50 is 0.0084 µM.

**Q.** How did the IC50 turn out when COc1ncc(-c2cc(CN3CC4(CCC4)C3)c3c(N)ncnn23)cc1C(=O)N[C@@H]1CN(C(=O)[C@@](C)(O)C(F)(F)F)C[C@@H]1F [Example 1550, 5-[4-amino-5-({2-azaspiro[3,3]heptan-2-yl}methyl)pyrrolo[2,1-f][1,2,4]triazin-7-yl]-N-[(3R,4S)-4-fluoro-1-[(2R)-3,3,3-trifluoro-2-hydroxy-2-methylpropanoyl]pyrrolidin-3-yl]-2-methoxypyridine-3-carboxamide] was run?
**A.** Its IC50 is 0.0029 µM.

**Q.** How did the IC50 turn out when Nc1ncnn2c(-c3ccc(Cl)c(C(=O)N[C@@H]4CN(C(=O)c5ccc(F)cc5)C[C@@H]4F)c3)cc(C(F)(F)F)c12 [Example 952, 5-[4-amino-5-(trifluoromethyl)pyrrolo[2,1-f][1,2,4]triazin-7-yl]-2-chloro-N-[(3R,4S)-4-fluoro-1-(4-fluorobenzoyl)pyrrolidin-3-yl]benzamide] was run?
**A.** The IC50 was 0.024 µM.

**Q.** With Nc1ncnn2c(-c3ccc(Cl)c(C(=O)N[C@@H]4CN(C(=O)CC(O)(C(F)(F)F)C(F)(F)F)C[C@@H]4F)c3)cc(CN3CCC(C(F)(F)F)CC3)c12 [Example 1156] as the compound, how does the IC50 read?
**A.** Its IC50 is 0.003 µM.

**Q.** With COc1cc(C(=O)N[C@@H]2CN(C(=O)CC(C(F)(F)F)C(F)(F)F)C[C@@H]2F)cc(-c2cc(C(F)(F)F)c3c(N)ncnn23)c1 [Example 586, 3-[4-amino-5-(trifluoromethyl)pyrrolo[2,1-f][1,2,4]triazin-7-yl]-N-[(3R,4S)-4-fluoro-1-[4,4,4-trifluoro-3-(trifluoromethyl)butanoyl]pyrrolidin-3-yl]-5-methoxybenzamide] as the compound, how does the IC50 read?
**A.** The IC50 was 0.0036 µM.

**Q.** COc1ncc(-c2cc(C(F)(F)F)c3c(N)ncnn23)cc1C(=O)Nc1cnn(CCC(C)(O)C(F)(F)F)c1 (stereo not shown) [Example 1790, 5-(4-amino-5-(trifluoromethyl)pyrrolo[2,1-f][1,2,4]triazin-7-yl)-2-methoxy-N-(1-(4,4,4-trifluoro-3-hydroxy-3-methylbutyl)-1H-pyrazol-4-yl)nicotinamide] was tested. Which IC50 did it give?
**A.** Its IC50 is 0.095 µM.

**Q.** How did the IC50 turn out when COc1ncc(-c2cc(C(F)(F)F)c3c(N)ncnn23)cc1C(=O)N[C@@H]1CN(C(=O)OC(C)C(C)C)C[C@@H]1F (stereo partly drawn) [Example 1428, 3-methylbutan-2-yl (3R,4S)-3-{5-[4-amino-5-(trifluoromethyl)pyrrolo[2,1-f][1,2,4]triazin-7-yl]-2-methoxypyridine-3-amido}-4-fluoropyrrolidine-1-carboxylate] was run?
**A.** The IC50 was 0.0029 µM.

**Q.** How did the IC50 turn out when CCc1ccc(-c2cc(C(F)(F)F)c3c(N)ncnn23)cc1C(=O)N[C@@H]1CN(C(=O)CC(C(F)(F)F)C(F)(F)F)C[C@@H]1F [Example 966, 5-[4-amino-5-(trifluoromethyl)pyrrolo[2,1-f][1,2,4]triazin-7-yl]-2-ethyl-N-[(3R,4S)-4-fluoro-1-[4,4,4-trifluoro-3-(trifluoromethyl)butanoyl]pyrrolidin-3-yl]benzamide] was run?
**A.** The IC50 was 0.0056 µM.

**Q.** CCNC(=O)c1cc(-c2cnc(OC)c(C(=O)N3CCC[C@@H](Cc4ccc(F)cc4)C3)c2)n2ncnc(N)c12 [Example 467, 4-amino-N-ethyl-7-{5-[(3S)-3-[(4-fluorophenyl)methyl]piperidine-1-carbonyl]-6-methoxypyridin-3-yl}pyrrolo[2,1-f][1,2,4]triazine-5-carboxamide] was tested. Which IC50 did it give?
**A.** Its IC50 is 0.031 µM.

**Q.** COc1ncc(-c2cc(C(F)(F)F)c3c(N)ncnn23)cc1C(=O)N[C@@H]1CN(C(C)c2sc(C)nc2C)C[C@@H]1F (stereo partly drawn) [Example 1404, 5-[4-amino-5-(trifluoromethyl)-pyrrolo[2,1-f][1,2,4]triazin-7-yl]-N-[(3R,4S)-1-[1-(2,4-dimethyl-1,3-thiazol-5-yl)-ethyl]-4-fluoropyrrolidin-3-yl]-2-methoxypyridine-3-carboxamide] was tested. Which IC50 did it give?
**A.** Its IC50 is 0.093 µM.

**Q.** With COc1cc(F)c(-c2cc(CN3CCC(C(F)(F)F)CC3)c3c(N)ncnn23)cc1C(=O)N[C@@H]1CN(C(=O)[C@@](C)(O)C(F)(F)F)C[C@@H]1F [Example 1639, 5-(4-amino-5-{[4-(trifluoromethyl)piperidin-1-yl]methyl}pyrrolo[2,1-f][1,2,4]triazin-7-yl)-4-fluoro-N-[(3R,4S)-4-fluoro-1-[(2R)-3,3,3-trifluoro-2-hydroxy-2-methylpropanoyl]pyrrolidin-3-yl]-2-methoxybenzamide] as the compound, how does the IC50 read?
**A.** Its IC50 is 0.0014 µM.

**Q.** COc1ncc(-c2cc(C(F)(F)F)c3c(N)ncnn23)cc1C(=O)N1CCCC(O)(Cc2ccc(F)cc2)C1 (stereo not shown) [Example 1741, (5-(4-amino-5-(trifluoromethyl)pyrrolo[2,1-f][1,2,4]triazin-7-yl)-2-methoxypyridin-3-yl)(3-(4-fluorobenzyl)-3-hydroxypiperidin-1-yl)methanone] was tested. Which IC50 did it give?
**A.** The IC50 was 0.101 µM.

**Q.** How did the IC50 turn out when C[C@@](O)(C(=O)N1C[C@H](F)[C@H](NC(=O)c2cc(-c3cc(CN4CCC(F)(F)CC4)c4c(N)ncnn34)ccc2Cl)C1)C(F)(F)F [Example 1141, 5-{4-amino-5-[(4,4-difluoropiperidin-1-yl)methyl]pyrrolo[2,1-f][1,2,4]triazin-7-yl}-2-chloro-N-[(3R,4S)-4-fluoro-1-[(2R)-3,3,3-trifluoro-2-hydroxy-2-methylpropanoyl]pyrrolidin-3-yl]benzamide] was run?
**A.** The IC50 was 0.00075 µM.

**Q.** With COc1ncc(-c2cc(CN3CCC(C(F)(F)F)CC3)c3c(N)ncnn23)cc1C(=O)N[C@@H]1CN(C(=O)C(C)(C)C(F)(F)F)C[C@@H]1F [Example 1630, 5-(4-amino-5-{[4-(trifluoromethyl)piperidin-1-yl]methyl}pyrrolo[2,1-f][1,2,4]triazin-7-yl)-N-[(3R,4S)-4-fluoro-1-(3,3,3-trifluoro-2,2-dimethylpropanoyl)pyrrolidin-3-yl]-2-methoxypyridine-3-carboxamide] as the compound, how does the IC50 read?
**A.** Its IC50 is 0.024 µM.

**Q.** For Cc1ccc(-c2cc(C(F)(F)F)c3c(N)ncnn23)cc1C(=O)Nc1cnn(C(C)c2ccc(F)cc2)c1 (stereo not shown) [Example 1794, 5-(4-amino-5-(trifluoromethyl)pyrrolo[2,1-f][1,2,4]triazin-7-yl)-N-(1-(1-(4-fluorophenyl)ethyl)-1H-pyrazol-4-yl)-2-methylbenzamide], which IC50 is on record?
**A.** The IC50 was 0.001 µM.

**Q.** How did the IC50 turn out when CC(C)(O)C(=O)N1C[C@H](F)[C@H](NC(=O)c2cc(-c3cc(C(F)(F)F)c4c(N)ncnn34)ccc2C(F)(F)F)C1 [Example 897, 5-[4-amino-5-(trifluoromethyl)pyrrolo[2,1-f][1,2,4]triazin-7-yl]-N-[(3R,4S)-4-fluoro-1-(2-hydroxy-2-methylpropanoyl)pyrrolidin-3-yl]-2-(trifluoromethyl)benzamide] was run?
**A.** The IC50 was 0.482 µM.

**Q.** Cc1cc(F)c(-c2cc(C(F)(F)F)c3c(N)ncnn23)cc1C(=O)N[C@@H]1CN(C(=O)c2c(F)cncc2F)C[C@@H]1F [Example 835, 5-[4-amino-5-(trifluoromethyl)pyrrolo[2,1-f][1,2,4]triazin-7-yl]-N-[(3R,4S)-1-(3,5-difluoropyridine-4-carbonyl)-4-fluoropyrrolidin-3-yl]-4-fluoro-2-methylbenzamide] was tested. Which IC50 did it give?
**A.** Its IC50 is 0.0041 µM.

**Q.** For COc1ncc(-c2cc(C(F)(F)F)c3c(N)ncnn23)cc1C(=O)NC1CN(Cc2cncc(F)c2)CC1F (racemic) [Example 230, 5-[4-amino-5-(trifluoromethyl)pyrrolo[2,1-f][1,2,4]triazin-7-yl]-N-{4-fluoro-1-[(5-fluoropyridin-3-yl)methyl]pyrrolidin-3-yl}-2-methoxypyridine-3-carboxamide], which IC50 is on record?
**A.** The IC50 was 0.015 µM.

**Q.** With COc1ncc(-c2cc(Cl)c3c(N)ncnn23)cc1C(=O)Nc1cnn(Cc2ccccc2)c1 [Example 33, 5-{4-amino-5-chloropyrrolo[2,1-f][1,2,4]triazin-7-yl}-N-(1-benzyl-1H-pyrazol-4-yl)-2-methoxypyridine-3-carboxamide] as the compound, how does the IC50 read?
**A.** The IC50 was 0.034 µM.

**Q.** COc1ncc(-c2cc(C(F)(F)F)c3c(N)ncnn23)cc1C(=O)NCCCOc1ccc(F)cc1 [Example 113, 5-[4-amino-5-(trifluoromethyl)pyrrolo[2,1-f][1,2,4]triazin-7-yl]-N-[3-(4-fluorophenoxy)propyl]-2-methoxypyridine-3-carboxamide] was tested. Which IC50 did it give?
**A.** Its IC50 is 0.085 µM.

**Q.** COc1ncc(-c2cc(C(F)(F)F)c3c(N)ncnn23)cc1C(=O)N[C@@H]1CN(C(=O)C2CCCC2)C[C@@H]1C [Example 19, 5-[4-amino-5-(trifluoromethyl)pyrrolo[2,1-f][1,2,4]triazin-7-yl]-N-[(3S,4S)-1-cyclopentanecarbonyl-4-methylpyrrolidin-3-yl]-2-methoxypyridine-3-carboxamide] was tested. Which IC50 did it give?
**A.** Its IC50 is 0.047 µM.

**Q.** Which IC50 does the source give for CCc1c(F)cc(-c2cc(C(F)(F)F)c3c(N)ncnn23)cc1C(=O)N[C@@H]1CN(C(=O)C2(F)CC2)C[C@@H]1F [Example 657, 5-[4-amino-5-(trifluoromethyl)pyrrolo[2,1-f][1,2,4]triazin-7-yl]-2-ethyl-3-fluoro-N-[(3R,4S)-4-fluoro-1-(1-fluorocyclopropanecarbonyl)pyrrolidin-3-yl]benzamide] here?
**A.** The IC50 was 0.013 µM.

**Q.** How did the IC50 turn out when Cc1c(F)cc(-c2cc(C(F)(F)F)c3c(N)ncnn23)cc1C(=O)N[C@@H]1CN(C(=O)C2(O)CCC2)C[C@@H]1F [Example 671, 5-[4-amino-5-(trifluoromethyl)pyrrolo[2,1-f][1,2,4]triazin-7-yl]-3-fluoro-N-[(3R,4S)-4-fluoro-1-(1-hydroxycyclobutanecarbonyl)pyrrolidin-3-yl]-2-methylbenzamide] was run?
**A.** Its IC50 is 0.0039 µM.

**Q.** Which IC50 does the source give for Cc1ccc(-c2cc(C(F)(F)F)c3c(N)ncnn23)cc1C(=O)N[C@@H]1CN(C(=O)C2(F)CC2)C[C@@H]1F [Example 983, 5-[4-amino-5-(trifluoromethyl)pyrrolo[2,1-f][1,2,4]triazin-7-yl]-N-[(3R,4S)-4-fluoro-1-(1-fluorocyclopropanecarbonyl)pyrrolidin-3-yl]-2-methylbenzamide] here?
**A.** Its IC50 is 0.0022 µM.
